The values that follow come from article PMC12820563.

Some of the results follow. The list includes weakly bound sequences.

The assay concerns the target T1, MBP-FoxP3dN (UniProt Q99JB6).
T1 sequence: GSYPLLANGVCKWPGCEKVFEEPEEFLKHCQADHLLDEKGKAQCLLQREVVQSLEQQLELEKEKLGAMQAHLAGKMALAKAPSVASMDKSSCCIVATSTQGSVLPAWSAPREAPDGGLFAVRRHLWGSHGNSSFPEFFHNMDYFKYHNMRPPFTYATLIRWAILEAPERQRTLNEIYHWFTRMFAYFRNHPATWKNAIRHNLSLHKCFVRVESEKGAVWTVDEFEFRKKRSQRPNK
Description: PD-seq (MBP pull-down with sequencing). The following applies: 20 mM Tris-HCl pH 7.5, 100 mM NaCl, 1.5 mM MgCl2, 0.4 uM protein, 0.1 uM dsDNA library, 30 min, room temperature, amylose pull-down; high values mean tight binding; double strand, one strand shown.
“GATGATTGTTCTCCCAGCTGATGAATTGGCCCATTCGAGTAAACAAATTTTCCTAATCTTTCTGTTCAAGCGCCATCTAC”: the binding signal (RPM ratio (pull-down/input)) was determined as 0.377.
For the sequence “GATGATTGTTCTCCCAGCTGATGAATTTGACCGGTCGAGTAAACAAATTTTCCTAATCTTTCTGTTCAAGCGCCATCTAC”, the binding signal (RPM ratio (pull-down/input)) was found to be 0.206.
As to “GATGATTGTTCTCCCAGCTGATGAATTACTGCAGTCGAGTAAACAAATTTTCCTAATCTTTCTGTTCAAGCGCCATCTAC”, the binding signal (RPM ratio (pull-down/input)) was 0.609.
The value for “GATGATTGTTCTCCCAGCTGATGAATTGCTAAACTCGAGTAAACAAATTTTCCTAATCTTTCTGTTCAAGCGCCATCTAC” was 0.535.
For the sequence “GATGATTGTTCTCCCAGCTGATGAATTGCTCTAGTCGAGTAAACAAATTTTCCTAATCTTTCTGTTCAAGCGCCATCTAC”, the binding signal (RPM ratio (pull-down/input)) was 0.382.
Under “GATGATTGTTCTCCCAGCTGATGAATTATTGGAATCGAGTAAACAAATTTTCCTAATCTTTCTGTTCAAGCGCCATCTAC” stands 0.313.
Under “GATGATTGTTCTCCCAGCTGATGAATTGGATCCGTCGAGTAAACAAATTTTCCTAATCTTTCTGTTCAAGCGCCATCTAC” stands 0.219; under “GATGATTGTTCTCCCAGCTGATGAATTATATCAGTCGAGTAAACAAATTTTCCTAATCTTTCTGTTCAAGCGCCATCTAC”, 0.471.
As to “GATGATTGTTCTCCCAGCTGATGAATTGGCGCAATCGAGTAAACAAATTTTCCTAATCTTTCTGTTCAAGCGCCATCTAC”, the binding signal (RPM ratio (pull-down/input)) is 3.12.
Under “GATGATTGTTCTCCCAGCTGATGAATTGTGATCCTCGAGTAAACAAATTTTCCTAATCTTTCTGTTCAAGCGCCATCTAC” stands 1.17; under “GATGATTGTTCTCCCAGCTGATGAATTCTGCGATTCGAGTAAACAAATTTTCCTAATCTTTCTGTTCAAGCGCCATCTAC”, 1.64; under “GATGATTGTTCTCCCAGCTGATGAATTCGATGTCTCGAGTAAACAAATTTTCCTAATCTTTCTGTTCAAGCGCCATCTAC”, 3.27.
The value for “GATGATTGTTCTCCCAGCTGATGAATTACACGGATCGAGTAAACAAATTTTCCTAATCTTTCTGTTCAAGCGCCATCTAC” was 0.302; that for “GATGATTGTTCTCCCAGCTGATGAATTTGTTGACTCGAGTAAACAAATTTTCCTAATCTTTCTGTTCAAGCGCCATCTAC” was 7.34.
Under “GATGATTGTTCTCCCAGCTGATGAATTAGAATCATCGAGTAAACAAATTTTCCTAATCTTTCTGTTCAAGCGCCATCTAC” stands 0.532; under “GATGATTGTTCTCCCAGCTGATGAATTTGCCACGTCGAGTAAACAAATTTTCCTAATCTTTCTGTTCAAGCGCCATCTAC”, 1.2; under “GATGATTGTTCTCCCAGCTGATGAATTTAATCGGTCGAGTAAACAAATTTTCCTAATCTTTCTGTTCAAGCGCCATCTAC”, 0.308.
Take “GATGATTGTTCTCCCAGCTGATGAATTGCAGTACTCGAGTAAACAAATTTTCCTAATCTTTCTGTTCAAGCGCCATCTAC”: the binding signal (RPM ratio (pull-down/input)) came out at 0.876.
Turning to “GATGATTGTTCTCCCAGCTGATGAATTTTCGAGGTCGAGTAAACAAATTTTCCTAATCTTTCTGTTCAAGCGCCATCTAC”, the binding signal (RPM ratio (pull-down/input)) came to 0.221.
Turning to “GATGATTGTTCTCCCAGCTGATGAATTAACAAGTTCGAGTAAACAAATTTTCCTAATCTTTCTGTTCAAGCGCCATCTAC”, the binding signal (RPM ratio (pull-down/input)) was 0.391.
Consider “GATGATTGTTCTCCCAGCTGATGAATTATGGTTCTCGAGTAAACAAATTTTCCTAATCTTTCTGTTCAAGCGCCATCTAC”, for which the binding signal (RPM ratio (pull-down/input)) is 1.18.
As to “GATGATTGTTCTCCCAGCTGATGAATTGAGACGGTCGAGTAAACAAATTTTCCTAATCTTTCTGTTCAAGCGCCATCTAC”, the binding signal (RPM ratio (pull-down/input)) was determined as 0.242.
Under “GATGATTGTTCTCCCAGCTGATGAATTGAATAGGTCGAGTAAACAAATTTTCCTAATCTTTCTGTTCAAGCGCCATCTAC” stands 0.32; under “GATGATTGTTCTCCCAGCTGATGAATTTCTACCATCGAGTAAACAAATTTTCCTAATCTTTCTGTTCAAGCGCCATCTAC”, 0.265.
Regarding “GATGATTGTTCTCCCAGCTGATGAATTCGATTGCTCGAGTAAACAAATTTTCCTAATCTTTCTGTTCAAGCGCCATCTAC”, the binding signal (RPM ratio (pull-down/input)) stood at 3.32.
In the case of “GATGATTGTTCTCCCAGCTGATGAATTGACACCATCGAGTAAACAAATTTTCCTAATCTTTCTGTTCAAGCGCCATCTAC”, the binding signal (RPM ratio (pull-down/input)) is 0.744.
For the sequence “GATGATTGTTCTCCCAGCTGATGAATTCCCGTCGTCGAGTAAACAAATTTTCCTAATCTTTCTGTTCAAGCGCCATCTAC”, the binding signal (RPM ratio (pull-down/input)) turned out to be 0.373.
“GATGATTGTTCTCCCAGCTGATGAATTAGTCTATTCGAGTAAACAAATTTTCCTAATCTTTCTGTTCAAGCGCCATCTAC”: the binding signal (RPM ratio (pull-down/input)) stood at 1.33.
Under “GATGATTGTTCTCCCAGCTGATGAATTGTGAGGATCGAGTAAACAAATTTTCCTAATCTTTCTGTTCAAGCGCCATCTAC” stands 0.49; under “GATGATTGTTCTCCCAGCTGATGAATTCTTACAATCGAGTAAACAAATTTTCCTAATCTTTCTGTTCAAGCGCCATCTAC”, 0.346.
In the case of “GATGATTGTTCTCCCAGCTGATGAATTCCAAGATTCGAGTAAACAAATTTTCCTAATCTTTCTGTTCAAGCGCCATCTAC”, the binding signal (RPM ratio (pull-down/input)) is 0.239.
With “GATGATTGTTCTCCCAGCTGATGAATTCAGAAGATCGAGTAAACAAATTTTCCTAATCTTTCTGTTCAAGCGCCATCTAC”, the binding signal (RPM ratio (pull-down/input)) is 0.184.
For “GATGATTGTTCTCCCAGCTGATGAATTGGTGTAGTCGAGTAAACAAATTTTCCTAATCTTTCTGTTCAAGCGCCATCTAC”, the binding signal (RPM ratio (pull-down/input)) came to 1.41.
Consider “GATGATTGTTCTCCCAGCTGATGAATTCATTCTCTCGAGTAAACAAATTTTCCTAATCTTTCTGTTCAAGCGCCATCTAC”, for which the binding signal (RPM ratio (pull-down/input)) was found to be 0.284.
For “GATGATTGTTCTCCCAGCTGATGAATTACCTGGTTCGAGTAAACAAATTTTCCTAATCTTTCTGTTCAAGCGCCATCTAC”, the binding signal (RPM ratio (pull-down/input)) amounted to 0.253.
For the sequence “GATGATTGTTCTCCCAGCTGATGAATTCCTTGGGTCGAGTAAACAAATTTTCCTAATCTTTCTGTTCAAGCGCCATCTAC”, the binding signal (RPM ratio (pull-down/input)) is 0.233.
“GATGATTGTTCTCCCAGCTGATGAATTAGGTATGTCGAGTAAACAAATTTTCCTAATCTTTCTGTTCAAGCGCCATCTAC”: the binding signal (RPM ratio (pull-down/input)) worked out at 1.85.
On to “GATGATTGTTCTCCCAGCTGATGAATTCGGTATATCGAGTAAACAAATTTTCCTAATCTTTCTGTTCAAGCGCCATCTAC”, for which the binding signal (RPM ratio (pull-down/input)) worked out at 2.02.
As to “GATGATTGTTCTCCCAGCTGATGAATTAGGTGAATCGAGTAAACAAATTTTCCTAATCTTTCTGTTCAAGCGCCATCTAC”, the binding signal (RPM ratio (pull-down/input)) was 0.334.
“GATGATTGTTCTCCCAGCTGATGAATTGGACGACTCGAGTAAACAAATTTTCCTAATCTTTCTGTTCAAGCGCCATCTAC”: the binding signal (RPM ratio (pull-down/input)) came out at 0.259.
